Assay results taken from PubChem BioAssay AID2675 (National Center for Advancing Translational Sciences (NCATS), 2010).
In all, about 280,000 compounds went through this assay and about 100 (0.036%) were called active. Inconclusive means that the source gave no clear call. Such entries were picked first, then a sample of the others. The call rests on the fitted dose curve; in most records, active means well fitted inhibition curve with a large enough effect in the signal ratio, with a control signal flat (not every such curve was filed as active); inconclusive means small, poorly fitted or top-dose-only effect, or effect the other way, or a change in a side signal; inactive means no such curve, though single readings can be large or run the other way; the % refers to the signal ratio. Potencies of inconclusive entries are doubtful fits and often do not repeat. A note “side channel” means that the fit belongs to a control or component signal, not to the main read-out.

molecular target: Muscleblind-like protein 1 (Homo sapiens) (UniProt Q9NR56); experiment: qHTS Assay for Inhibitors of MBNL1-poly(CUG) RNA binding; conditions: TR-FRET MBNL1-His/biotin-(CUG)12 binding, 665/545 ratio; activity change, negative = inhibition: at 57.5 µM (top of the series)
Outline: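 His-tagged MBNL1 binding to biotinylated (CUG)12 RNA was measured by TR-FRET using terbium anti-His antibody (0.055 ng/ul final) and streptavidin-XL665 (5 nM final). Compounds were titrated 92 nM to 58 uM; 60 min at room temperature.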
On the % scale 0 is the no-effect control and ±100 the full control effect; potency means the concentration at half of the fitted maximal effect; tags describe the fitted curve by direction and shape or compound fluorescence and quenching.

UniProt Q9NR56, sequence (Q9NR56 whole entry, looked up): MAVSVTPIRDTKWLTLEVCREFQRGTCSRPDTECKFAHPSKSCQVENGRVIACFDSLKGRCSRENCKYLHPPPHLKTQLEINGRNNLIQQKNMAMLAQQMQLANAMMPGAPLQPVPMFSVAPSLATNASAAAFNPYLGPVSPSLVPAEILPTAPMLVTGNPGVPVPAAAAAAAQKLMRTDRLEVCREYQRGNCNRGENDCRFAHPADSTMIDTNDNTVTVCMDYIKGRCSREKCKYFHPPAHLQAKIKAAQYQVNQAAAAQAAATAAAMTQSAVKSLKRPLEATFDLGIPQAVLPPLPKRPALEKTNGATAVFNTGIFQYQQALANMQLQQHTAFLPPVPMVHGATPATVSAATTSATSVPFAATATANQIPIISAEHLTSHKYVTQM

SMILES | Potency | activity change, negative = inhibition
COc1ccccc1-c1nnc(NC(=O)c2ccc(S(=O)(=O)N(C)Cc3ccccc3)cc2)o1 | inconclusive: 8.91 µM [fluorescent, side channel, single point] | –
N#Cc1c(Cl)nc2c(c1C#N)CCCC2 | inconclusive: 20 µM [quencher, side channel, partial curve] | –
CN(C)c1ccc(/C=N/n2c(-c3cccnc3)n[nH]c2=S)cc1 | inconclusive: 22.4 µM [quencher, side channel, partial curve] | –
CN(C(=O)COC(=O)c1sc2ccccc2c1Cl)C1CCCCC1 | inconclusive: 31.6 µM [quencher, side channel, partial curve] | –
Cc1nnc2n(c1=O)C(CS(=O)(=O)c1ccc3ccccc3c1)CS2 (centres undefined) | inactive | –
CCn1c2ccccc2c2nnc(SCC(=O)N3CC(C)OC(C)C3)nc21 (centres undefined) | inconclusive: 25.1 µM [quencher, side channel, partial curve] | –
CSc1nc(O)c(/C=C2\C=Nc3ccccc32)[nH]1 | inconclusive: 39.8 µM [quencher, side channel, single point] | –
COc1ccc(C(=O)CCC(=O)N2CCN(c3ccc(N4CCOCC4)nn3)CC2)cc1 | inconclusive: 39.8 µM [quencher, side channel, single point] | –
CC1N(C)c2cc(NC(=O)c3ccco3)ccc2C1(C)C (centres undefined) | inconclusive: 35.5 µM [quencher, single point] | –
O=C(O)c1ccc(-c2nc3ccccc3s2)o1 | inconclusive: 22.4 µM [quencher, side channel, partial curve] | –
O=C(/C=C/c1ccc([N+](=O)[O-])cc1)NCC1CCCO1 (centres undefined) | inconclusive: 12.6 µM [quencher, side channel, partial curve] | –
O=C(NC(=S)NC1CCSC1=O)c1ccc([N+](=O)[O-])cc1 (centres undefined) | inconclusive: 15.8 µM [quencher, partial curve] | –
CCOc1ccc(NC(=S)N(Cc2ccc(N(C)C)cc2)Cc2ccco2)cc1 | inactive | –
COCCNS(=O)(=O)c1ccc(SC)cc1 | inconclusive: 5.01 µM [quencher, side channel, single point] | –
COc1cc(Nc2ccc(C(=O)O)cc2[N+](=O)[O-])cc(OC)c1 | inconclusive: 25.1 µM [quencher, side channel, partial curve] | –
Cc1ccc(C(=O)Nc2ccc(N3CCN(C(=O)c4cccs4)CC3)cc2)c(Cl)c1 | inactive | –
O=C1C=C(c2cccs2)C[C@H](c2ccccc2)[C@H]1n1nnc([N+](=O)[O-])n1 | inconclusive: 31.6 µM [quencher, side channel, partial curve] | –
C=CCNC(=O)C(=O)NCC1CCCN1CC (centres undefined) | inactive | –
COc1ccc(CNC(=O)COC(=O)/C=C/c2ccco2)cc1 | inconclusive: 4.47 µM [quencher, side channel, full curve] | –
O=C1c2cccc3cccc(c23)C(=O)N1c1cccc(O)c1 | inconclusive: 7.94 µM [quencher, side channel, partial curve] | –

SMILES | Potency | activity change, negative = inhibition
Cc1ccc(NC(C)C(=O)N/N=C/c2ccc([N+](=O)[O-])s2)cc1 (centres undefined) | inconclusive: 12.6 µM [quencher, side channel, partial curve] | –
Cc1ccccc1NCC(=O)N/N=C/c1ccc([N+](=O)[O-])cc1 | inconclusive: 3.98 µM [quencher, side channel, partial curve] | –
CCOC(=O)C1C2C=CC3(CN(Cc4cccs4)C(=O)C13)O2 (centres undefined) | inactive | –
CCOC(=O)CCC(NC(=O)CCCC(=O)NC(CCC(=O)OCC)C(=O)OCC)C(=O)OCC (centres undefined) | inconclusive: 22.4 µM [fluorescent, side channel, partial curve] | –
COc1cc2c(cc1OC)C(C)N(C(=O)Cn1ncc3c1-c1cc(C)ccc1OC3)CC2 (centres undefined) | inconclusive: 8.91 µM [quencher, side channel, single point] | –
CC(C)c1nccn1S(=O)(=O)c1cccc([N+](=O)[O-])c1 | inconclusive: 35.5 µM [quencher, side channel, single point] | –
Cc1cccn2c(=O)c(C=Nc3ccccc3)c(NCCO)nc12 | inconclusive: 31.6 µM [quencher, side channel, partial curve] | –
COC(=O)CCCC1=CC2=C(c3ccccc3)C(=O)C(C)(OC(=O)C3CCCC3)C(=O)C2=CN1Cc1ccco1 (centres undefined) | inconclusive: 31.6 µM [quencher, side channel, single point] | –
CC1Cc2cc(/C=C3/SC(N4CCC(C(N)=O)CC4)=NC3=O)ccc2O1 (centres undefined) | inconclusive: 4.47 µM [quencher, side channel, full curve] | –
COc1ccccc1-c1nc(SCC(=O)Nc2ccccc2F)n[nH]1 | inactive | –
CCn1cc([N+](=O)[O-])c(C(=O)NCc2ccc3c(c2)OCO3)n1 | inconclusive: 28.2 µM [quencher, single point] | –
NC(=O)c1ccc(NCC2CCCO2)c([N+](=O)[O-])c1 (centres undefined) | inconclusive: 12.6 µM [quencher, side channel, partial curve] | –
CN(C)c1ccc(NC(=O)C2C3C=CC(C3)C2C(=O)O)cc1 (centres undefined) | inconclusive: 14.1 µM [quencher, side channel, partial curve] | –
CC1CCN(S(=O)(=O)c2ccc([N+](=O)[O-])cc2)CC1 | inconclusive: 7.08 µM [quencher, side channel, partial curve] | –
O=C(Nn1cnnc1)c1ccc(Br)s1 | – | inactive: -5.91% [at 11.5 µM]
N/C(=N\OC(=O)CCN1C(=O)c2ccccc2C1=O)c1ccccn1 | inconclusive: 8.91 µM [quencher, side channel, partial curve] | –
Cc1ccc(N2C(=O)[C@@H]3[C@H](C2=O)C2c4ccccc4C=CN2[C@@H]3C(=O)c2ccco2)c(C)c1 (some centres undefined) | inconclusive: 39.8 µM [quencher, side channel, single point] | –
CC(=O)c1ccc(Nc2cnn(C34CC5CC(CC(CC(=O)O)(C5)C3)C4)c(=O)c2Cl)cc1 | inconclusive: 22.4 µM [quencher, side channel, partial curve] | –
c1ccc(-c2ccc3c(c2)c2c4n3CCN=C4CCC2)cc1 | inconclusive: 12.6 µM [quencher, side channel, partial curve] | –
Cc1[nH]n(-c2ccccc2)c(=S)c1C=NCCCN=Cc1c(C)[nH]n(-c2ccccc2)c1=S | inconclusive: 20 µM [quencher, side channel, single point] | –

SMILES | Potency | activity change, negative = inhibition
CCc1ccc(/C=N/NC(=O)c2cc(C)on2)s1 | inconclusive: 10 µM [quencher, side channel, partial curve] | –
Cc1c(CN(C)C)c2c(n1C)C(=O)c1ccc(Br)cc1-2 | inconclusive: 15.8 µM [quencher, side channel, partial curve] | –
CC(C)c1ccc(NC(=O)CN2CCN(c3ccccn3)CC2)cc1 | inactive | –
CC1=NN(c2ccccc2)C(=O)C1C(=O)c1cc([N+](=O)[O-])cc([N+](=O)[O-])c1 (centres undefined) | inconclusive: 12.6 µM [quencher, side channel, partial curve] | –
O=C(CN1C(=O)S/C(=C\c2ccccc2F)C1=O)NC1CCS(=O)(=O)C1 (centres undefined) | inconclusive: 22.4 µM [quencher, side channel, single point] | –
C=C(C)CNC(=S)Nc1cccc2cnccc12 | inconclusive: 12.6 µM [quencher, side channel, single point] | –
COc1ccc(/C=N/NC(=O)c2ccncc2)cc1[N+](=O)[O-] | inconclusive: 14.1 µM [quencher, partial curve] | –
CC(C)(C)OC(=O)N/N=C/c1cccc([N+](=O)[O-])c1 | inconclusive: 17.8 µM [quencher, side channel, partial curve] | –
CSC1=C(C#N)C(C)C2=C(CC(C)(C)CC2=O)N1 (centres undefined) | inactive | –
CC(C)CCNC(=O)C1CC(c2cccc([N+](=O)[O-])c2)=NO1 (centres undefined) | inconclusive: 25.1 µM [quencher, side channel, partial curve] | –
O=C(O)CC/C(=N\Nc1ccc([N+](=O)[O-])cc1)c1ccccc1 | inconclusive: 31.6 µM [quencher, side channel, partial curve] | –
O=C(CSc1nc2ccc([N+](=O)[O-])cc2[nH]1)NCCc1ccccc1 | inconclusive: 14.1 µM [quencher, side channel, partial curve] | –
O=c1cc(O)c2ccc(O)cc2o1 | inactive | –
COc1ccc(-c2nc3c(n2O)CCc2c-3no[n+]2[O-])cc1 | inconclusive: 31.6 µM [quencher, side channel, partial curve] | –
N#CC(C#N)=NNc1ccc(S(=O)(=O)N2CCCCC2)cc1 | inconclusive: 35.5 µM [quencher, partial curve] | –
COc1ccc2oc(=O)c(-c3cn4ccc(C)cc4n3)cc2c1 | inconclusive: 17.8 µM [quencher, side channel, partial curve] | –
S=c1[nH]c(-c2ccccc2)cn1/N=C/c1ccncc1 | inconclusive: 12.6 µM [quencher, partial curve] | –
Cc1cccc(C)c1NC(=O)C(NC(=O)c1ccccn1)c1ccccc1[N+](=O)[O-] (centres undefined) | inconclusive: 28.2 µM [quencher, side channel, partial curve] | –
COc1ccccc1Nc1ccc(C(=O)O)cc1[N+](=O)[O-] | inconclusive: 14.1 µM [quencher, side channel, partial curve] | –
